# Assay results reported in PubChem BioAssay AID1508642 (National Center for Advancing Translational Sciences (NCATS), 2021).
# The whole screen tested about 43,000 compounds, of which about 200 (0.47%) were called active. About 12% were inconclusive and are not listed. The call rests on the fitted dose curve; in most records, active means well fitted cell-killing curve with a large enough effect; inconclusive means small, poorly fitted or top-dose-only effect, or effect the other way; inactive means flat fitted curve, though single readings scatter. This is one part of the list.
# Assay: Cell viability qHTS assay in S16 Pmp22-F2sN cells; further: nearly all actives have a fitted effect of over 65% in size
# Conditions: S16 Pmp22-F2sN Schwann cells (luciferase reporters placed in the Pmp22 gene) viability, CellTiter-Glo, 24 h; series mostly up to 57.5 µM; activity change, negative = cytotoxicity: at the top concentration
# In short: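 CellTiter-Glo counter-screen, qHTS, 1536-well. Cells: S16(c9) Pmp22-F2sN, 500-1,000/well in DMEM + 10% FBS. Cpd 23 nL pin transfer, 24 h, 37C/5% CO2. Read: luminescence, CCD imager.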
# On the % scale 0 is the no-effect control and ±100 the full control effect.
row,SMILES,"activity change, negative = cytotoxicity"
1,CCOc1ccc(C(=O)Nc2c(C)nc(Nc3ccccc3)nc2Nc2ccccc2)cc1OCC,inactive: -8.87%
2,CCOc1ccc(CNC(=O)C(C)n2ncn3cccc3c2=O)cc1 (configuration not stated),inactive: -2.39%
3,CCOC(=O)c1[nH]c(C)c(CCC(=O)Nc2ccc(C)cc2Cl)c1C,inactive: -13.6%
4,O=C(c1ccc(Br)cc1)N1CCC(c2nc3ccccc3s2)CC1,inactive: -19.8%
5,CCOc1ccccc1CNC(=O)C1=C(C)C(=O)OC12CCN(C(C)=O)CC2,inactive: -0.0372%
6,COc1ccc(CCNc2nc(-c3ccccc3OC)cc(C(F)(F)F)n2)cc1OC,inactive: -4.08%
7,COc1ccccc1N1CCN(C(=O)CSc2nc(C)cc(=O)[nH]2)CC1,inactive: -8.78%
8,CC(C)Nc1cc(N2CCN(C3CCCCC3)CC2)c2noc3c2c1C(=O)c1ccccc1-3,inactive: -0.932%
9,O=C(NCCc1ccccc1)c1c2c(nc3ccccc13)C(=O)N(C1CCCCC1)C2,inactive: 0.101%
10,Cc1oc(-c2cccc(Cl)c2)nc1CN1CCC(C(=O)NCc2ccc(F)cc2)CC1,inactive: -2.08%
11,O=C(Nc1nnc(N2CCCC2)s1)Nc1cc(F)ccc1F,inactive: 12%
12,Cc1cc2c(n1-c1ccc(C(=O)NCc3cccc(Br)c3)cc1)CCC(C)C2 (configuration not stated),inactive: -12.3%
13,CCOC(=O)c1c(-c2ccccc2)oc2ccc(OCc3ccc(C)cc3)cc12,inactive: 3.27%
14,Cc1ccc(N2C(=O)CSC23C(=O)Nc2ccccc23)cc1F (configuration not stated),inactive: 13.9%
15,Cc1cccc(-c2nc3c4ccccc4n(CC(=O)Nc4cc(F)ccc4F)c(=O)n3n2)c1,inactive: 5.98%
16,CC(=O)c1cccc(NC(=O)C2CCN(c3nnc(-n4cccc4)s3)CC2)c1,inactive: -1.09%
17,O=C(c1cccc([N+](=O)[O-])c1)N1c2nc(-c3ccco3)nn2C2(CCCCC2)[C@@H]2CCCC[C@@H]21,inactive: -7.43%
18,COc1ccc(-c2cc(C(F)(F)F)nc(SCC(=O)N3CCCCC3)n2)cc1,inactive: 8.78%
19,CCCC(=O)c1cc2c(cc1NC(=O)c1ccccc1F)OCCO2,inactive: 8.12%
20,CCCCOc1ccc(NC(=O)c2cc3c(n(-c4ccc(Cl)cc4)c2=O)CCCC3=O)cc1,inactive: 8.51%
21,Cc1ccc(CNC(=O)CCCn2c(=O)c3ccccc3n(Cc3ccccc3Cl)c2=O)cc1,inactive: 10.6%

row,SMILES,"activity change, negative = cytotoxicity"
1,Cc1ccc(OCC(=O)N(Cc2ccc(N(C)C)cc2)CC2CCCO2)cc1C (configuration not stated),inactive: -3.34%
2,CC(=O)Nc1ccc(NC(=O)CC(C)n2ccc(C)n2)cc1 (configuration not stated),inactive: 0.66%
3,Cc1cc(C)c(-c2csc(-c3cc4ccccc4oc3=O)n2)cc1C,inactive: -0.646%
4,CCCN1CCN(CCNC(=O)Nc2cc(Cl)c(OC)cc2OC)CC1,inactive: 8%
5,O=C(Cn1c(=O)n(CCCS(=O)(=O)C2CCCCC2)c(=O)c2ccccc21)Nc1ccccc1F,inactive: 0.842%
6,Cc1nn2c3c(cnc2c1-c1ccc(F)cc1)C(=O)CC(c1ccccc1)C3 (configuration not stated),inactive: -1.08%
7,CCOC(=O)c1c(C)[nH]c(C)c1S(=O)(=O)N(C)CC(=O)N1CCN(c2cccc(C)c2C)CC1,inactive: 27.6%
8,Cc1cccc(N2C(=O)C(CC(=O)Nc3ccccc3)N(C3CCCCC3)C2=O)c1 (configuration not stated),inactive: -15.4%
9,COc1cccc(C(=O)Nc2nc3nc(C)c(Cc4ccccc4)c(=O)n3[nH]2)c1,inactive: -0.721%
10,COc1ccccc1C(=O)Nc1ccccc1C(=O)OCc1cc(=O)n2c(C)csc2n1,inactive: 0.501%
11,Cc1nn(C)c2c1c(-c1ccccc1)cc(=O)n2Cc1ccc(Br)cc1F,inactive: -15.7%
12,CCOC(=O)c1c(C)oc2nc(C)nc(NCCCN3CCN(c4ccccc4OC)CC3)c12,inactive: 1.94%
13,COc1ccc(Nc2nnc(-c3cc4cc(Cl)ccc4oc3=O)s2)cc1,inactive: 11.3%
14,CCC(C)NC(=O)c1ccc(Cn2c(=O)c3cccn3c3cccnc32)cc1 (configuration not stated),inactive: 1.26%
15,COc1cccc(CN2C(=O)c3ccccc3C2C(=O)NCCc2ccccc2)c1 (configuration not stated),inactive: 3.27%
16,COc1cc(SC)ccc1C(=O)N1CCn2c3c(c4cc(C)ccc42)CCCC31 (configuration not stated),inactive: 0.542%
17,CCCS(=O)(=O)c1c(S(=O)(=O)CCC)c2cc(C(C)(C)C)ccn2c1C(=O)c1ccc(C)cc1,inactive: -6.25%
18,O=C(CCCCCn1c(=O)[nH]c2ccsc2c1=O)NCc1ccccc1,inactive: -2.4%
19,CCOc1ccc(CNC(=O)Cn2nc(N3CCN(c4ccccc4)CC3)ccc2=O)cc1,inactive: -17.5%
20,Oc1c(C(c2cccc(Br)c2)N2CCCC2)sc2nc(-c3ccco3)nn12 (configuration not stated),inactive: 5.85%
21,Cc1ccc(C(=O)Nc2c(C)nc3ccccn3c2=O)cc1,inactive: 2.25%

row,SMILES,"activity change, negative = cytotoxicity"
1,COc1ccccc1CNC(=O)CSc1nc2nc(C)c(Cc3ccccc3C)c(C)n2n1,inactive: 2.19%
2,O=C(NCc1ccc(Cl)cc1)C1CCN(C(=O)c2cnn(-c3ccccc3)c2-n2cccc2)CC1,inactive: -14.3%
3,CCc1nnc2c(NCc3ccccc3)nc3ccccc3n12,inactive: 3.57%
4,CCOc1ccc(-c2cc(NC(=O)Nc3ccccc3Cl)c(C(=O)OC)s2)cc1,inactive: -13.7%
5,Cc1ccc(-c2nnc(Nc3ccc(F)cc3)c3ccccc23)cc1S(=O)(=O)NC(C)C,inactive: -0.234%
6,Cc1ccc(C(=O)N2CCN(c3ccccc3)CC2)cc1NC(=O)c1nsc2ccccc12,inactive: -2.04%
7,Cc1ccc(/C=C/c2onc(C)c2S(=O)(=O)N2CCC(C(=O)Nc3cccc(C#N)c3)CC2)cc1,inactive: 18%
8,CCN(CC)CCNC(=O)CN1C(=O)CSc2ccc(S(=O)(=O)N3CCOCC3)cc21,inactive: 12%
9,CCOC(=O)COc1ccc(CC)cc1C(=O)c1ccn2nc(-c3ccc(C)cc3)cc2n1,inactive: 18.7%
10,Cc1ccccc1CSc1nc2c([nH]c3ccccc32)c(=O)n1-c1ccccc1,inactive: 0.948%
11,Cn1c(-c2cccc(Br)c2)cnc1NCc1cccc(F)c1,inactive: -10.8%
12,Cc1cccc(-c2nnc(SCC(=O)Nc3ccc(C)c(C)c3)o2)c1,inactive: 0.185%
13,CC(C)c1ccc(NC(=O)C2CCCN(S(=O)(=O)c3ccc4[nH]c(=O)oc4c3)C2)cc1 (configuration not stated),inactive: 1.23%
14,CCN(CC)S(=O)(=O)c1ccc2c(c1)c(=O)c(C(=O)N1CCN(c3ccc(OC)cc3)CC1)cn2C,inactive: 3.15%
15,CCc1ccccc1NC(=O)c1nc2nc(C)cc(C(F)F)n2n1,inactive: 0.43%
16,Cc1ccc(CNC(=O)CN2N=C(c3ccc(C)cc3)CCC2=O)cc1,inactive: -0.324%
17,Cc1ccc(CNC(=O)c2cc3c(=O)n4cccc(C)c4nc3s2)cc1,inactive: 4.67%
18,Cc1nc(-c2ccc(F)cc2)sc1CCNC(=O)c1ccccc1C(F)(F)F,inactive: 5.54%
19,Cc1ccc2oc(C(=O)NCC(c3ccc(Cl)cc3)N3CCOCC3)c(C)c2c1 (configuration not stated),inactive: 1.22%
20,CC1=C(C(=O)Nc2ccccc2C)C(c2sccc2C)n2ncnc2N1 (configuration not stated),inactive: 3.79%
